# Data taken from the supplement of paper PMC3724861.
# The list shows a part of the results.
# System: T1, Caupolican (Caup) homeodomain DNA-binding domain
# T1 sequence: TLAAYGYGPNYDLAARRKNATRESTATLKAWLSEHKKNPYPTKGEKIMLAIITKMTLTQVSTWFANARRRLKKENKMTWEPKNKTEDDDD
# Assay: PBM E-score (8-mer, recovered from the published 9-mer minima) (E-score (dimensionless, -0.5 to 0.5)); Drosophila protein; higher = stronger relative binding preference, active = 0.31 or more
# Procedure, shortened: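 Caup's homeodomain DNA-binding domain (residues 214-303) was made by in vitro transcription and translation and applied at 100 nM to custom-designed protein binding microarrays. Each value is an enrichment score that gives relative binding preference for a short DNA word, with higher meaning stronger. The 8-mer values were recovered from published 9-mer scores, each of which was the minimum of its two constituent 8-mer scores. A cutoff of 0.31 marks candidate sites.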
row,Sequence,PBM E-score
1,ATAAACGC,inactive: -0.00028
2,CCGTTGGC,inactive: -0.151
3,CAAGCTCG,inactive: -0.114
4,GCTAAGAC,inactive: -0.0692
5,CGTTGCAA,inactive: 0.00353
6,AATCTCTA,inactive: 0.0932
7,ATACCCTA,≥ 0.143
8,CAATATGA,inactive: 0.132
9,CACCGCCG,inactive: -0.161
10,CTGCCTGC,inactive: -0.201
11,CACCCCTA,inactive: -0.0888
12,AGTAGACC,inactive: 0.0256
13,CGCTTGGC,inactive: -0.165
14,CGAGACTA,≥ 0.074
15,AGTTTAAC,inactive: 0.119
16,GATGCGGC,inactive: -0.211
17,GCTATAGA,inactive: -0.0486
18,CGGACCTC,inactive: -0.205
19,CCGGAGTC,inactive: -0.182
20,CGGAACGC,inactive: -0.111
21,AGCCTGGC,inactive: -0.213
22,GCAGGGGA,inactive: -0.239
23,GTAGCCCA,inactive: 0.00973

row,Sequence,PBM E-score
1,ACATCCCC,inactive: 0.0968
2,ATGCCCCG,inactive: -0.14
3,AGAAACGA,inactive: 0.0571
4,ACACGTTG,inactive: 0.229
5,CCTCTGAG,inactive: -0.224
6,CCCCCAAA,inactive: -0.228
7,CCATGGTA,inactive: 0.133
8,CATCCTGA,inactive: 0.007
9,ACGGTGAG,inactive: -0.136
10,GAGATCGC,inactive: -0.0885
11,AGCCCCTA,inactive: -0.186
12,GAGGCCCA,inactive: -0.232
13,GACCTGAC,inactive: -0.0401
14,AGAGGGCG,inactive: -0.153
15,GTAGGAGA,inactive: -0.0257
16,GGCATAAA,inactive: -0.021
17,CCCAGTAG,inactive: -0.0965
18,AAAGACAG,inactive: 0.032
19,CGTTTCCC,inactive: -0.165
20,CCTACTCA,inactive: -0.0849
21,GGATAACC,inactive: -0.0854
22,CTCGAGAG,inactive: -0.112
23,AAGTTATC,inactive: 0.0886

row,Sequence,PBM E-score
1,TGAACTAA,inactive: 0.026
2,AATGTACC,inactive: 0.192
3,CCCATCTC,inactive: -0.167
4,CTCCGTAA,inactive: -0.142
5,CGCACAGA,inactive: -0.0672
6,CGCGACAG,inactive: -0.0284
7,AAGCGGAG,inactive: -0.0542
8,CGTTTCCA,inactive: 0.0216
9,CTCGTTTA,inactive: 0.0535
10,CGATTTCA,inactive: -0.0117
11,CAGGACTA,inactive: 0.043
12,CAACTATG,inactive: 0.168
13,CCCTTGAC,inactive: -0.0839
14,CTCTGCAG,inactive: -0.0908
15,CTTTTTAA,inactive: -0.0201
16,CGGCGTCA,inactive: -0.146
17,AAGATCTT,inactive: 0.0143
18,ATCATGAC,inactive: 0.233
19,ATGAGAAC,inactive: 0.0869
20,GATGTCAC,inactive: 0.294
21,ACCGTAAT,inactive: 0.00498
22,AATAGACC,inactive: -0.0627
23,ACAAGCGG,inactive: 0.219

row,Sequence,PBM E-score
1,CGGAACTC,inactive: -0.05
2,CCAGCCGA,inactive: -0.199
3,ACTATCAA,inactive: 0.127
4,AAATCCTG,inactive: 0.0969
5,CACCGTAC,inactive: 0.107
6,AAGCGTCT,inactive: -0.129
7,CTACGTAG,inactive: -0.0763
8,GGATTTTA,inactive: 0.0194
9,TCTAATCA,inactive: 0.155
10,CATGCTTA,inactive: 0.127
11,ATGTAAGC,inactive: 0.231
12,TATTATCA,inactive: 0.157
13,CAATGACG,inactive: 0.0695
14,AGGCCTTA,inactive: -0.112
15,ACGAACAC,inactive: 0.24
16,AGTGGCTA,inactive: -0.11
17,GAGATTCA,inactive: 0.0308
18,TGGAAACA,inactive: 0.192
19,GTAATCGA,inactive: 0.171
20,CCTAAAGA,inactive: -0.122
21,CGTATAAA,≥ 0.135
22,ATGTGATC,inactive: 0.211
23,GCCTATCA,inactive: -0.108

row,Sequence,PBM E-score
1,ATATAGGA,≥ 0.127
2,CCATCACC,inactive: -0.0284
3,GGTCGCAA,inactive: -0.111
4,ATCACTTG,inactive: 0.172
5,GCGGGGGA,inactive: -0.279
6,GGGTCGAC,inactive: -0.122
7,CTCCGGCA,inactive: -0.112
8,AATGTCGC,inactive: 0.191
9,ACACTTCC,inactive: -0.0229
10,GACCCAAC,inactive: -0.0923
11,ACCGTGTC,active: 0.312
12,CCAAGGCA,inactive: -0.181
13,AAGCTTTA,≥ 0.0355
14,CTCCTTTC,inactive: -0.118
15,CAGCGTAC,inactive: -0.0501
16,CAGGTCGC,inactive: -0.0801
17,CGGGGTAC,inactive: -0.117
18,ACTGTAGA,inactive: 0.136
19,ATGGGTTC,inactive: -0.0378
20,AGGGTATA,inactive: 0.102
